# Data as given in article PMC7819943, “Rice protein-binding microarrays: a tool to detect cis-acting elements near promoter regions in rice”.
# This is one part of the list.
# Target: T1, OsWOX13 (Oryza sativa, UniProt Q5QMM3 1-267)
# T1 sequence: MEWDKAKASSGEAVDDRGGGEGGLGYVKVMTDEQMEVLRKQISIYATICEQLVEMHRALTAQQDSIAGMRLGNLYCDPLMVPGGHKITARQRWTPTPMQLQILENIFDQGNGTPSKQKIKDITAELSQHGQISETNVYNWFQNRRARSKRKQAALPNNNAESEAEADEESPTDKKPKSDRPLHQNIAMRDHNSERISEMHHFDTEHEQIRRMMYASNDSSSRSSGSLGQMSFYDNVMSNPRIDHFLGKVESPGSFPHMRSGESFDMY
# Test: protein-binding microarray (RPBM); PBS, 2% BSA, 51.3 ng/ul salmon testes DNA, 50 uM zinc acetate, 200 nM TF, 25 C, 1 h; high values mean tight binding
# Details: protein: recombinant; tags: N-terminal polyhistidine and DsRed monomer fusion (pET32a); label: CyDye5-dUTP incorporated in the synthesized complementary strand; 3' TTTTT single-stranded linker to array surface; dsDNA, one strand shown
# Summary of the method: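 Binding signal is reported as fluorescence intensity per feature (arbitrary units) from an Axon 4000B scanner. Incubation used 200 nM of each Ni–NTA-purified, N-terminally polyhistidine- and DsRed-fused transcription factor from E. coli BL21-CodonPlus on a double-stranded custom Agilent array for 1 h at 25 °C, with 50 µM zinc acetate in the buffer, followed by washing.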
row,Sequence,binding signal
1,ATTAATTAAAATTTGAAAAGAAATTGGATAATACTAAAATCGGAGTCACCTAGTGCAG,5240 fluorescence intensity (a.u.)
2,ATGATTTACATTATTGTTCGAAACAATAACATGTAAATCCCGGAGTCACCTAGTGCAG,27000 fluorescence intensity (a.u.)
3,AGAGACTTAATAGATTCCGAAATCACCATCATCGCTGTTTCGGAGTCACCTAGTGCAG,7780 fluorescence intensity (a.u.)
4,AAATTAATTTATCGTACATCACTAGTCACAGGCTTTTGTGCGGAGTCACCTAGTGCAG,21800 fluorescence intensity (a.u.)
5,AAGTCTAATTAATCCATCATTAGCAAATGTTTATTGTAGCCGGAGTCACCTAGTGCAG,26700 fluorescence intensity (a.u.)
6,ACTTGATTGGCAGTCGCCACTGACCAACTTTCCAAAACCTCGGAGTCACCTAGTGCAG,40500 fluorescence intensity (a.u.)
7,CGAATTTTCAATTATACTATCGATTTAAACTAAGTAATGGCGGAGTCACCTAGTGCAG,7150 fluorescence intensity (a.u.)
8,TAGGAATTGAATAAACATGATAAGTTGGGGTTCTGAAGACCGGAGTCACCTAGTGCAG,6520 fluorescence intensity (a.u.)
9,ATATGTTATTAGTTAATTATTACCGGCCTTCCACATGAGCCGGAGTCACCTAGTGCAG,8280 fluorescence intensity (a.u.)
10,AATATAATTTTAAATTGTAAAATTATAGAGCTAACAAGTTCGGAGTCACCTAGTGCAG,35900 fluorescence intensity (a.u.)
11,ATTGCAATTACATCGATCAAAGGTGTGGCCCATTGCATATCGGAGTCACCTAGTGCAG,5630 fluorescence intensity (a.u.)
12,GTTCGTTCGTTCGTTGATTGATTGTGTTGAATTAATTGAGCGGAGTCACCTAGTGCAG,27600 fluorescence intensity (a.u.)
13,AGTTAATTAATTAATTAGCTACGTACTCTTGTGCCTCTGTCGGAGTCACCTAGTGCAG,54900 fluorescence intensity (a.u.)
14,GAGCGCAAATTTGTTTGATAAATTTTAGGTGAAAATTTGTCGGAGTCACCTAGTGCAG,15600 fluorescence intensity (a.u.)
15,CCCCATCATAAATGGCTGATTTAATTGGGCTGTACTCCCTCGGAGTCACCTAGTGCAG,18900 fluorescence intensity (a.u.)
16,AGTTATTGACAGTGACTAATCTACCTAATCCGTAGATTAACGGAGTCACCTAGTGCAG,12500 fluorescence intensity (a.u.)
17,CTGAGTGACTGGTTGGTGGGCCCCACCCAGCGTCTCTTCTCGGAGTCACCTAGTGCAG,8170 fluorescence intensity (a.u.)
18,GGTAATTGGGAGGGAATTCCTCCTTTACTTCACATAAACACGGAGTCACCTAGTGCAG,13400 fluorescence intensity (a.u.)
19,TCCCAATTGAATATTTGCACACATTTGTTTCTTTCCTTTGCGGAGTCACCTAGTGCAG,8920 fluorescence intensity (a.u.)
20,CTTCAATCTATCAGTTCACTTAGGGAGTGTTTGAAGAGAACGGAGTCACCTAGTGCAG,9100 fluorescence intensity (a.u.)
21,AAAATAAATTGACAACATTCGTACAATATATATAAATATCCGGAGTCACCTAGTGCAG,25900 fluorescence intensity (a.u.)

row,Sequence,binding signal
1,ACTAAAATTGAAAGTTTGATTAAAATTAGAACGATGTGACCGGAGTCACCTAGTGCAG,39800 fluorescence intensity (a.u.)
2,TATGAATATAAATCATGAATAACTCTCAAGTTGTTGAGTTCGGAGTCACCTAGTGCAG,4760 fluorescence intensity (a.u.)
3,ATCTCGAAGTAAATTTAATTGTTCAAAATTATATAAAAGCCGGAGTCACCTAGTGCAG,6980 fluorescence intensity (a.u.)
4,GATTTTCAGTCTAATGCCATTTAGCAATTCTGATGTTAGACGGAGTCACCTAGTGCAG,3490 fluorescence intensity (a.u.)
5,GTTGATTTGATAATGATAATTATGCAATGGCCGACATATACGGAGTCACCTAGTGCAG,37800 fluorescence intensity (a.u.)
6,CAAAATTGGTAGACTTTCATGACAGAATCCCTGTACATTACGGAGTCACCTAGTGCAG,12000 fluorescence intensity (a.u.)
7,AATAAATTGTATTAATAACAAATTAGTCTATTCTATTAAACGGAGTCACCTAGTGCAG,24100 fluorescence intensity (a.u.)
8,ATTTTACAGGGTGATTTGAACATACAGTAATTATGGCCAACGGAGTCACCTAGTGCAG,6520 fluorescence intensity (a.u.)
9,CTGTAGATTGAGCCTAAAACTATAAGTAACATAAGTCAAACGGAGTCACCTAGTGCAG,8590 fluorescence intensity (a.u.)
10,GTTGGCCTGGATTGATGGCGAGGCGAGCGCGGATGGACGTCGGAGTCACCTAGTGCAG,3400 fluorescence intensity (a.u.)
11,GTTCGTTTTCCGTGCACTAATTAAACAGTTACGGCGACTTCGGAGTCACCTAGTGCAG,3430 fluorescence intensity (a.u.)
12,GTGTGTGATGGGTTAATCGATGTGCTATGTTATTGGTTTCCGGAGTCACCTAGTGCAG,5310 fluorescence intensity (a.u.)
13,TAACTCATGATTAATAAATAAGCCTGTAAGTTACAGAACTCGGAGTCACCTAGTGCAG,7260 fluorescence intensity (a.u.)
14,TTAACCAATCATAAACTCTCCACGTTCACTTCTACCTACTCGGAGTCACCTAGTGCAG,5880 fluorescence intensity (a.u.)
15,GTTAAACTTTGATGAAACCACTTGAAAATTTTCAAACATGCGGAGTCACCTAGTGCAG,3540 fluorescence intensity (a.u.)
16,AGAAGATTAATAAAATGTGAGCATTATTAGCATTAGTATACGGAGTCACCTAGTGCAG,6070 fluorescence intensity (a.u.)
17,TGTTTAAAACGTCAATTAAAATAAAATCAGAGATAGCAGTCGGAGTCACCTAGTGCAG,14300 fluorescence intensity (a.u.)
18,CAGTTTGACTGTTGACCCGTAGTTTTGTCACATGATGGATCGGAGTCACCTAGTGCAG,7240 fluorescence intensity (a.u.)
19,ACAATTATCACCAAATTAGGGGTGAAAATGATCGAAAACGCGGAGTCACCTAGTGCAG,12600 fluorescence intensity (a.u.)
20,ACGATAATTGATATGGATAATTGGATTGGATTATATGCAGCGGAGTCACCTAGTGCAG,41000 fluorescence intensity (a.u.)
21,AGGCTGATTTTGATTAGAAAGGCTTAGATCGGACAATAGGCGGAGTCACCTAGTGCAG,39700 fluorescence intensity (a.u.)
